Measurements taken from patent US5620958A, “Bradykinin antagonists” (Coretech, Inc., priority 1994, dated 1997).
Part of at least one peptide drawing is inferred or uncertain, most often the ends. Numbered stars: 1 amine (or outer) side, 2 acyl side, 3 side chain; on linkers, the order of the positions; unused ones are H or OH. Bridge positions count the residues as written; N and C are the ends. Square brackets hold non-standard residues; d marks the D form. Peptide text beside a SMILES is read from it. I, II: the chains in the order shown. BMH = O=C1CC([*:1])C(=O)N1CCCCCCN1C(=O)CC([*:2])C1=O; Oic = O=C(O)[C@@H]1C[C@@H]2CCCC[C@@H]2N1; Hyp = O=C(O)[C@@H]1C[C@@H](O)CN1; dTic = O=C(O)[C@H]1Cc2ccccc2CN1

Key:
BK2 receptor [1] = biological target: T1, BK2 receptor (Cavia porcellus, UniProt O70526); assay: guinea-pig ileum (GPI) in vitro, antagonism of BK; format: cell-based; settings: for GPI pA2: Table E
T1 construct: tested for activity on guinea pig ileum in vitro on the standard tissue bath/strain gauge system; from tissue; host or cells: guinea pig ileum
T1 sequence (O70526 1-372): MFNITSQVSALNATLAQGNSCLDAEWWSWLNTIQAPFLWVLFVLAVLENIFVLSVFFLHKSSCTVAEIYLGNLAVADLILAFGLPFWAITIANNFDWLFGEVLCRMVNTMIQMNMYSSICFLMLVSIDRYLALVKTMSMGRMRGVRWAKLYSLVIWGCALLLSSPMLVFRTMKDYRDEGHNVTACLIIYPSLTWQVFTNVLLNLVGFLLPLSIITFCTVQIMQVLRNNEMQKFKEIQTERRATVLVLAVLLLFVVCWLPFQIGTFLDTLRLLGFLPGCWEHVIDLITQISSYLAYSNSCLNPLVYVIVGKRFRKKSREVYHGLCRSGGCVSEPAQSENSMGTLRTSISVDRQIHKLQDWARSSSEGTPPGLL
Experimental: Thus, in vitro studies were performed on standard assay systems, namely, guinea-pig ileum (GPI), rat uterus (RU) and rabbit jugular vein (RJV). […] The potency of each compound was assessed as a pA2 value according to the method of Arunlakshana & Schild, Br. J. Pharmacol. Chemother., 1.4:48-58 (1959). The pA2 can be defined as the negative logarithm of the molar concentration of the antagonist in the presence of which the potency of the agonist is reduced two-fold, i.e., twice the amount of agonist is required to produce a given response in the presence of, than in the absence of, the antagonist. A high potency of antagonism is indicated by a high pA2 value, i.e., a low concentration of antagonist is effective.
The percentage recovery (% Rec) was also determined for compounds with respect to each assay.
The various compounds identified in Table B below were prepared following the procedure of Example 1 with the Cys moiety introduced into the parent CP-0088 at the position indicated followed by reaction between the sulfhydryl group of the Cys residue and BMH to provide dimers as indicated. The Cys-modified monomers and the resultant dimers were tested for activity on guinea pig ileum in vitro on the standard tissue bath/strain gauge system as before.

BK2 receptor [2] = biological target: T2, BK2 receptor (Rattus norvegicus, UniProt P25023); settings: for RAT UTERUS pA2: Table E; for BK2 RAT UTERUS pA2: Table G
T2 sequence (P25023 1-396): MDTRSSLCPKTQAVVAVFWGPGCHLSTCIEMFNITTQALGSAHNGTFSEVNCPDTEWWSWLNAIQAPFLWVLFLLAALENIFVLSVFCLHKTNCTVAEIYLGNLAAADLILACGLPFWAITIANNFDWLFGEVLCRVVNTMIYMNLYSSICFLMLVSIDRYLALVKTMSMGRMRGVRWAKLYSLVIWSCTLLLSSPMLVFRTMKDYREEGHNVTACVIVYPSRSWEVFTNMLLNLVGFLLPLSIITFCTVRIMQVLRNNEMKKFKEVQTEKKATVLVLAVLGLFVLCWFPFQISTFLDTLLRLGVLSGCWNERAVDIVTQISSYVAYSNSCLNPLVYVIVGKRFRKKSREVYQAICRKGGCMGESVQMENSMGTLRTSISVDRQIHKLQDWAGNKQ

BK1 receptor = biological target: T3, BK1 receptor (Oryctolagus cuniculus, UniProt P48748); assay: rabbit aorta in vitro, reversal of des-Arg^9 -BK contraction; format: cell-based
T3 construct: when administered to an intact animal; from tissue; host or cells: whole rabbit (systemic arterial blood pressure), LPS-pretreated
T3 sequence (P48748 1-352): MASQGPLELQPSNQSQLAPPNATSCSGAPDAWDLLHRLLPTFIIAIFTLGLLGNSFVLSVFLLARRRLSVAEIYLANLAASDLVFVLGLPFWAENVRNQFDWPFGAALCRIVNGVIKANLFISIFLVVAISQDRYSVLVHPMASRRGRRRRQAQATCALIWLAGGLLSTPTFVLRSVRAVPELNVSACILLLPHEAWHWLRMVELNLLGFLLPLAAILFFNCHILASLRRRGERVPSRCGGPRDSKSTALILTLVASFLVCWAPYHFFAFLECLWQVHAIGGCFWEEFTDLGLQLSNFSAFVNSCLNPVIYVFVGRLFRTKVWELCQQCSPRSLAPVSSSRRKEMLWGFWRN

[3] = Table G, negative log of molar concentration causing 50% reversal of 10^-7 M des-Arg^9 -BK contraction

Compound	GPI pA2 (BK2 receptor [1])	BK1 RABBIT AORTA IC50 (BK1 receptor; [3])	BK2 RAT UTERUS pA2 (BK2 receptor [2])	other results
CC(C)C[C@H](NC(=O)[C@@H](Cc1ccccc1)NC(=O)[C@H](CO)NC(=O)[C@H](Cc1ccccc1)NC(=O)CNC(=O)[C@H](CSC1CC(=O)N(CCCCCCN2C(=O)CC(SC[C@H](NC(=O)[C@@H]3CCCN3C(=O)[C@H](CCCNC(=N)N)NC(=O)[C@H](N)CCCNC(=N)N)C(=O)NCC(=O)N[C@@H](Cc3ccccc3)C(=O)N[C@@H](CO)C(=O)N[C@H](Cc3ccccc3)C(=O)N[C@@H](CC(C)C)C(=O)N[C@@H](CCCNC(=N)N)C(=O)O)C2=O)C1=O)NC(=O)[C@@H]1CCCN1C(=O)[C@H](CCCNC(=N)N)NC(=O)[C@H](N)CCCNC(=N)N)C(=O)N[C@@H](CCCNC(=N)N)C(=O)O (some centres unmarked) [CP-0155] (HELM PEPTIDE1{[dR].R.P.C.G.F.S.[dF].L.R}|PEPTIDE2{[dR].R.P.C.G.F.S.[dF].L.R}|CHEM1{[O=C1CC([*:1])C(=O)N1CCCCCCN1C(=O)CC([*:2])C1=O]}$PEPTIDE1,CHEM1,4:R3-1:R1|PEPTIDE2,CHEM1,4:R3-1:R2$$$V2.0)				pA2 GUINEA PIG ILEUM (BK2 receptor [1]; Table B): 7.7 ± 0.2; pA2 DIMER (BK2 receptor [2]; Table C, rat uterus, P.A. = partial antagonist): 6.4 ± 0
CC(C)C[C@H](NC(=O)[C@@H](Cc1ccccc1)NC(=O)[C@H](CSC1CC(=O)N(CCCC(=O)NCCNC(=O)CCCN2C(=O)CC(SC[C@H](NC(=O)[C@H](Cc3ccccc3)NC(=O)CNC(=O)[C@@H]3C[C@@H](O)CN3C(=O)[C@@H]3CCCN3C(=O)[C@H](CCCNC(=N)N)NC(=O)[C@H](N)CCCNC(=N)N)C(=O)N[C@H](Cc3ccccc3)C(=O)N[C@@H](CC(C)C)C(=O)N[C@@H](CCCNC(=N)N)C(=O)O)C2=O)C1=O)NC(=O)[C@H](Cc1ccccc1)NC(=O)CNC(=O)[C@@H]1C[C@@H](O)CN1C(=O)[C@@H]1CCCN1C(=O)[C@H](CCCNC(=N)N)NC(=O)[C@H](N)CCCNC(=N)N)C(=O)N[C@@H](CCCNC(=N)N)C(=O)O (some centres unmarked) [CP-0163] (HELM PEPTIDE1{[dR].R.P.[Hyp].G.F.C.[dF].L.R}|PEPTIDE2{[dR].R.P.[Hyp].G.F.C.[dF].L.R}|CHEM1{[O=C(CCCN1C(=O)CC([*:1])C1=O)NCCNC(=O)CCCN1C(=O)CC([*:2])C1=O]}$PEPTIDE1,CHEM1,7:R3-1:R1|PEPTIDE2,CHEM1,7:R3-1:R2$$$V2.0)	8.2 ± 0.2			RAT UTERUS pA2 (BK2 receptor [2]): 7.6 ± 0.3
CC(C)C[C@H](NC(=O)[C@@H](Cc1ccccc1)NC(=O)[C@H](CSC1CC(=O)N(c2ccc(N3C(=O)CC(SC[C@H](NC(=O)[C@H](Cc4ccccc4)NC(=O)CNC(=O)[C@@H]4C[C@@H](O)CN4C(=O)[C@@H]4CCCN4C(=O)[C@H](CCCNC(=N)N)NC(=O)[C@H](N)CCCNC(=N)N)C(=O)N[C@H](Cc4ccccc4)C(=O)N[C@@H](CC(C)C)C(=O)N[C@@H](CCCNC(=N)N)C(=O)O)C3=O)cc2)C1=O)NC(=O)[C@H](Cc1ccccc1)NC(=O)CNC(=O)[C@@H]1C[C@@H](O)CN1C(=O)[C@@H]1CCCN1C(=O)[C@H](CCCNC(=N)N)NC(=O)[C@H](N)CCCNC(=N)N)C(=O)N[C@@H](CCCNC(=N)N)C(=O)O (some centres unmarked) [CP-0170] (HELM PEPTIDE1{[dR].R.P.[Hyp].G.F.C.[dF].L.R}|PEPTIDE2{[dR].R.P.[Hyp].G.F.C.[dF].L.R}|CHEM1{[O=C1CC([*:1])C(=O)N1c1ccc(N2C(=O)CC([*:2])C2=O)cc1]}$PEPTIDE1,CHEM1,7:R3-1:R1|PEPTIDE2,CHEM1,7:R3-1:R2$$$V2.0)	6.3			RAT UTERUS pA2 (BK2 receptor [2]): 7.1 ± 0.4
CC(C)C[C@H](NC(=O)[C@@H](Cc1ccccc1)NC(=O)[C@H](CSC1CC(=O)N(CCN(CCN2C(=O)CC(SC[C@H](NC(=O)[C@H](Cc3ccccc3)NC(=O)CNC(=O)[C@@H]3C[C@@H](O)CN3C(=O)[C@@H]3CCCN3C(=O)[C@H](CCCNC(=N)N)NC(=O)[C@H](N)CCCNC(=N)N)C(=O)N[C@H](Cc3ccccc3)C(=O)N[C@@H](CC(C)C)C(=O)N[C@@H](CCCNC(=N)N)C(=O)O)C2=O)CCN2C(=O)CC(SC[C@H](NC(=O)[C@H](Cc3ccccc3)NC(=O)CNC(=O)[C@@H]3C[C@@H](O)CN3C(=O)[C@@H]3CCCN3C(=O)[C@H](CCCNC(=N)N)NC(=O)[C@H](N)CCCNC(=N)N)C(=O)N[C@H](Cc3ccccc3)C(=O)N[C@@H](CC(C)C)C(=O)N[C@@H](CCCNC(=N)N)C(=O)O)C2=O)C1=O)NC(=O)[C@H](Cc1ccccc1)NC(=O)CNC(=O)[C@@H]1C[C@@H](O)CN1C(=O)[C@@H]1CCCN1C(=O)[C@H](CCCNC(=N)N)NC(=O)[C@H](N)CCCNC(=N)N)C(=O)N[C@@H](CCCNC(=N)N)C(=O)O (some centres unmarked) [CP-0176] (HELM PEPTIDE1{[dR].R.P.[Hyp].G.F.C.[dF].L.R}|PEPTIDE2{[dR].R.P.[Hyp].G.F.C.[dF].L.R}|PEPTIDE3{[dR].R.P.[Hyp].G.F.C.[dF].L.R}|CHEM1{[O=C1CC([*:1])C(=O)N1CCN(CCN1C(=O)CC([*:2])C1=O)CCN1C(=O)CC([*:3])C1=O]}$PEPTIDE1,CHEM1,7:R3-1:R1|PEPTIDE2,CHEM1,7:R3-1:R2|PEPTIDE3,CHEM1,7:R3-1:R3$$$V2.0)	7.0			
N=C(N)NCCC[C@@H](N)C(=O)N[C@@H](CCCNC(=N)N)C(=O)N1CCC[C@H]1C(=O)N1C[C@H](O)C[C@H]1C(=O)NCC(=O)N[C@@H](Cc1ccccc1)C(=O)N[C@@H](CS)C(=O)N1Cc2ccccc2C[C@@H]1C(=O)N1[C@H](C(=O)N[C@@H](CCCNC(=N)N)C(=O)O)C[C@@H]2CCCC[C@@H]21 [CP-0185] (HELM PEPTIDE1{[dR].R.P.[Hyp].G.F.C.[O=C([C@H]1Cc2ccccc2CN1[*:1])[*:2]].[O=C([C@@H]1C[C@@H]2CCCC[C@@H]2N1[*:1])[*:2]].R}$$$$V2.0)		4.1 ± 0.2	10.7 ± 0.9	
N=C(N)NCCC[C@@H](N)C(=O)N[C@@H](CCCNC(=N)N)C(=O)N1CCC[C@H]1C(=O)N1C[C@H](O)C[C@H]1C(=O)NCC(=O)N[C@@H](Cc1ccccc1)C(=O)N[C@@H](CS)C(=O)N1Cc2ccccc2C[C@@H]1C(=O)N1[C@H](C(=O)O)C[C@@H]2CCCC[C@@H]21 [CP-0268] (HELM PEPTIDE1{[dR].R.P.[Hyp].G.F.C.[O=C([C@H]1Cc2ccccc2CN1[*:1])[*:2]].[O=C(O)[C@@H]1C[C@@H]2CCCC[C@@H]2N1[*:1]]}$$$$V2.0)		6.3 ± 0.1	6.0	
CC(C)C[C@H](NC(=O)[C@@H](Cc1ccccc1)NC(=O)[C@H](CSC1CC(=O)N(CCCCCCN2C(=O)CC(SC[C@H](NC(=O)[C@H](Cc3ccccc3)NC(=O)CNC(=O)[C@@H]3C[C@@H](O)CN3C(=O)[C@@H]3CCCN3C(=O)[C@H](CCCNC(=N)N)NC(=O)[C@H](N)CCCNC(=N)N)C(=O)N3Cc4ccccc4C[C@@H]3C(=O)N3[C@H](C(=O)N[C@@H](CCCNC(=N)N)C(=O)O)C[C@@H]4CCCC[C@@H]43)C2=O)C1=O)NC(=O)[C@H](Cc1ccccc1)NC(=O)CNC(=O)[C@@H]1C[C@@H](O)CN1C(=O)[C@@H]1CCCN1C(=O)[C@H](CCCNC(=N)N)NC(=O)[C@H](N)CCCNC(=N)N)C(=O)O (stereo partly drawn) [CP-0272] (I: H-[dR]RP[Hyp]GFC[dTic][Oic]R-OH / II: H-[dR]RP[Hyp]GFC[dF]L-OH; linker I:7-II:7 via BMH)		5.9 ± 0.1	8.1 ± 0.2	
CC(C)C[C@H](NC(=O)[C@@H]1CCCN1C(=O)[C@H](CO)NC(=O)[C@H](Cc1cccs1)NC(=O)CNC(=O)[C@@H]1CCCN1C(=O)[C@@H]1CCCN1C(=O)[C@H](CS)NC(=O)[C@@H](N)CCCCN)C(=O)O [CP-0375] (HELM PEPTIDE1{K.C.P.P.G.[O=C([C@H](Cc1cccs1)N[*:1])[*:2]].S.P.L}$$$$V2.0)				BK1 RABBIT AORTA IC50 (BK1 receptor; Table K, negative log of molar concentration): 6.5 ± 0.3
